The record followed here is PubChem BioAssay AID1346428 (National Center for Advancing Translational Sciences (NCATS), 2018).

SMILES strings stand for the structures. Hit rate of the full screen: of about 48,000 compounds, about 1,200 (2.5%) were called active. Roughly 2% stayed inconclusive and do not appear here.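 How the source made its calls: active means activation of at least 60% and not above a set upper limit (about 1 call in 100 departs from these limits); inconclusive means activation of 40% to 60%, or above that upper limit; inactive means activation under 40%.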 This is one part of the list. Where a SMILES comes first, the peptide text is derived from it. Bridges are numbered along the chain shown (N, C = ends). [ ]: non-standard residue; d: D form. hArg = N=C(N)NCCCC[C@H](N)C(=O)O; Mpa = O=C(O)CCS

In this assay the target is Probable G-protein coupled receptor 32 (Homo sapiens) (UniProt O75388). Description: qHTS for Agonists of Human Resolvin D1 Receptor DRV1. The conditions noted are these: CHO-K1 GPR32 beta-arrestin PathHunter luminescence, 90 min; at 76.9 µM; stronger effect = higher value; zero percent set by DMSO-only wells. The method in brief: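 Using DMSO wells as EC0, agonist-induced signal was taken as chemiluminescence from beta-Gal reconstituted upon beta-arrestin recruitment to GPR32 in CHO-K1 cells after 90 min compound treatment.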
UniProt O75388, sequence (O75388 whole entry, looked up): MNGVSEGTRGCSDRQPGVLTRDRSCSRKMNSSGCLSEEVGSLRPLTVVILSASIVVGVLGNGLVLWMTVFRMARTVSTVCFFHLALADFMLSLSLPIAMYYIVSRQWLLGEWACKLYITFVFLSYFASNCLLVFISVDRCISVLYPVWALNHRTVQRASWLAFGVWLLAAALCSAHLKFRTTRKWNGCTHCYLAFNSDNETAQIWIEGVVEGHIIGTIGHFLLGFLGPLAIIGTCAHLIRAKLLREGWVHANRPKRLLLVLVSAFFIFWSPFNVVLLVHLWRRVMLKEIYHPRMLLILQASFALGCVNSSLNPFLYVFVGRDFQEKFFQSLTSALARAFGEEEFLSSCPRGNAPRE
In the case of `Cc1cc(F)ccc1NC(=O)CCS(=O)(=O)c1cc2c3c(c1)CCN3C(=O)CC2`, the activation is inactive: 1.5%.
As for `CCN(CC)C(=O)c1sc2c(c1C)c(=O)n(-c1ccc(C)c(C)c1)c(=O)n2CC(=O)Nc1ccc(OC)cc1OC`, the figure is inactive: -18.1%; as for `COc1ccc(OC)c(CNS(=O)(=O)c2cc(-c3onc(C)c3C)ccc2C)c1`, inactive: -23.6%.
As for `CN(C)CCC(c1ccc(Br)cc1)c1ccccn1` (configuration not stated), the figure is inactive: 5.13%; as for `CC(=O)c1ccc(NC(=O)CSc2nnc(-c3ccncc3)n2-c2ccccc2)cc1`, inactive: 13.9%.
As for `COc1ccc(/C=C/C(=O)Nc2cc(-c3nc4ccccc4o3)ccc2OC)cc1`, the activation was inactive: 20.5%.
With `Cc1cc(C)n2c(Nc3ccc4c(c3)OCCO4)c(-c3ccccc3)nc2n1`, the activation was inactive: -30.5%.
The same measure for `CCS(=O)(=O)N1CC(=O)N(c2cc(C)cc(C)c2)C(C)(C(=O)NC2CCCCC2)C1` (configuration not stated): inactive: -0.224%; for `COc1ccc(N2CCN(CCCNC(=O)c3nnc(Cc4ccccc4Cl)o3)CC2)cc1`: inactive: 2.71%.
On to `Cc1ccc(S(=O)(=O)c2[nH]c(-c3ccccc3)nc2SC(C)C(=O)O)cc1` (configuration not stated), for which the activation was inactive: 5.76%.
As for `CCOc1ccccc1NC(=O)CC1C(=O)NCCN1C(=O)c1ccc(F)cc1` (configuration not stated), the figure is inactive: 7.71%; as for `NC(=O)[C@@H]1CSSCCC(=O)N[C@@H](CCCCN=C(N)N)C(=O)NCC(=O)N[C@@H](CC(=O)O)C(=O)N[C@@H](Cc2c[nH]c3ccccc23)C(=O)N2CCC[C@H]2C(=O)N1` ([Mpa][hArg]GDWPC-NH2; disulfide 1-7), inactive: 0.362%.
In the case of `COc1ccc(OC)c(Nc2nc3ccccc3n3c(C)nnc23)c1`, the activation is inactive: 4.81%.
On to `COc1ccc(COC(=O)c2[nH]c3c(c2C)C(=O)CC(c2ccc(OC)c(OC)c2)C3)cc1` (configuration not stated), for which the activation is inactive: 6.7%.
`O=C(Nc1cc(-c2nc3cc(Cl)ccc3o2)ccc1Cl)c1cccs1`: the activation is inactive: 3.07%.
Take `COc1ccc(-c2nc(CN3CCC(C(=O)NCCCN4CCN(c5ccccc5F)CC4)CC3)c(C)o2)cc1OC`: the activation was inactive: -28.6%.
`NC[C@@H]1O[C@H](C23CC4CC(CC(C4)C2)C3)Cc2c1ccc(O)c2O`: the activation was inactive: 19%.
For `CC[C@H](C)[C@H](N)C(=O)O`, the activation was inactive: 37.5%.
As for `COc1cc(C(O)CO)ccc1O` (configuration not stated), the figure is inactive: 5.01%; as for `CC(=O)SC[C@@H](C)C(=O)N1CCC[C@H]1C(=O)N[C@@H](Cc1ccccc1)C(=O)O`, inactive: -6.2%.
The same measure for `COCCCNC(=O)c1cc2n(n1)CCCN(Cc1ccc(C)cc1)C2=O`: inactive: 7.26%.
As for `CCC(=O)N1c2ccccc2CC1C(=O)NCc1ccccc1C` (configuration not stated), the figure is inactive: -8.44%.
